Source: the supplement of paper PMC12217912
This is one part of the list. The full chains were built here from the parent and the listed change. Values near 0.05 are background.

B1: TEV protease; numbered along this chain (parent)
chain: MGESLFKGPRDYNPISSSICHLTNESDGHTTSLYGIGFGPFIITNKHLFRRNNGTLVVQSLHGVFKVKDTTTLQQHLVDGRDMIIIRMPKDFPPFPQKLKFREPQREERICLVTTNFQTKSMSSMVSDTSCTFPSGDGIFWKHWIQTKDGQCGSPLVSTRDGFIVGIHSASNFTNTNNYFTSVPKNFMELLTNQEAQQWVSGWRLNADSVLWGGHKVFMVKPEEPFQPVKEATQL

Variants of: B1
Experiment: raw area under fraction-flipped curve 0-4 h after induction (AUC4h, not background-subtracted), DNA-recorder readout of cleavage of the substrate (dimensionless); higher = more cleavage of the substrate by the protease variant
Details: temperature: 34 °C; time window: 0-4 h after rhamnose induction
Experimental: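 In vivo DNA recorder in E. coli TOP10(DE3) ΔrhaA at 34 °C. Each TEVp single-site mutant (parent TEVp 0) is paired with a single-site variant of the 7-mer TEVs (canonical ENLYFQ|S). The substrate sits between flexible linkers in a Bxb1-sfGFP-TEVs-SsrA fusion, so cleavage stabilises Bxb1 and speeds flipping of a recombination array, read by NGS. The value is the raw area under the fraction-flipped curve over 0-4 h after rhamnose induction (AUC4h), with ≥20 reads per time point. It is not background-subtracted; inactive controls average about 0.047.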
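Further: Bxb1 expression induced with 0.2% (w/v) L-rhamnose at OD600 near 0.5, cultures sampled hourly, flipped fraction per protease–substrate barcode pair counted by paired-end Illumina sequencing.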

Row | Variant | area with substrate ENLAFQS | area with substrate ENLCFQS | area with substrate ENLEFQS | area with substrate ENLFFQS | area with substrate ENLIFQS | area with substrate ENLKFQS | area with substrate ENLNFQS | area with substrate ENLRFQS | area with substrate ENLSFQS | area with substrate ENLVFQS | area with substrate ENLHFQS | area with substrate ENLQFQS | area with substrate ENLDFQS | area with substrate ENLGFQS | area with substrate ENLMFQS | area with substrate ENLPFQS | area with substrate ENLTFQS | area with substrate ENLWFQS | area with substrate ENLLFQS
1 | MGESLFKGPRDYNPISSSICHLTNESDGHTTSLYGIGFGPFIITNKHLFRRNNGTLVVQSLHGVFKVKDTTTLQQHLVDGRDMIIIRMPKDFPPFPQKLKFREPQREEFICLVTTNFQTKSMSSMVSDTSCTFPSGDGIFWKHWIQTKDGQCGSPLVSTRDGFIVGIHSASNFTNTNNYFTSVPKNFMELLTNQEAQQWVSGWRLNADSVLWGGHKVFMVKPEEPFQPVKEATQL [R109F] | 0.067 | 0.0852 | 0.0559 | 0.0906 | 0.0915 | 0.0697 | 0.0674 | 0.0248 | 0.0909 | 0.0623 | – | – | – | – | – | – | – | – | –
2 | MGESLFKGPRDYNPISSSICHLTNESDGHTTSLYGIGFGPFIITNKHLFRRNNGTLVVQSLHGVFKVKDTTTLQQHLVDGRDMIIIRMPKDFPPFPQKLKFREPQREERICLVCTNFQTKSMSSMVSDTSCTFPSGDGIFWKHWIQTKDGQCGSPLVSTRDGFIVGIHSASNFTNTNNYFTSVPKNFMELLTNQEAQQWVSGWRLNADSVLWGGHKVFMVKPEEPFQPVKEATQL [T114C] | 0.0526 | 0.0655 | – | 0.097 | – | 0.0835 | 0.0672 | – | – | 0.0931 | 0.0891 | 0.0687 | – | – | – | – | – | – | –
3 | MGESLFKGPRDYNPISSSICHLTNESDGHTTSLYGIGFGPFIITNKHLFRRNNGTLVVQSLHGVFKVKDTTTLQQHLVDGRDMIIIRMPKDFPPFPQKLKFREPQREERCCLVTTNFQTKSMSSMVSDTSCTFPSGDGIFWKHWIQTKDGQCGSPLVSTRDGFIVGIHSASNFTNTNNYFTSVPKNFMELLTNQEAQQWVSGWRLNADSVLWGGHKVFMVKPEEPFQPVKEATQL [I110C] | 0.0715 | 0.0777 | 0.0529 | 0.097 | – | 0.0742 | 0.0452 | 0.0761 | 0.0623 | – | 0.074 | 0.0551 | 0.0497 | 0.062 | 0.0741 | 0.0382 | 0.0585 | 0.068 | –
4 | MGESLFKGPRDYNPISSSICHLTNESDGHTTSLYGIGFGPFIITNKHLFRRNNGTLVVQSLHGVFKVKDTTTLQQHLVDGRDMIIIRMPKDFPPFPQKLKFREPQREERIVLVTTNFQTKSMSSMVSDTSCTFPSGDGIFWKHWIQTKDGQCGSPLVSTRDGFIVGIHSASNFTNTNNYFTSVPKNFMELLTNQEAQQWVSGWRLNADSVLWGGHKVFMVKPEEPFQPVKEATQL [C111V] | 0.0467 | 0.0996 | – | 0.0674 | – | – | 0.0448 | 0.069 | 0.0596 | 0.0856 | 0.0689 | – | 0.0552 | – | – | 0.051 | – | – | –
5 | MGESLFKGPRDYNPISSSICHLTNESDGHTTSLYGIGFGPFIITNKHLFRRNNGTLVVQSLHGVFKVKDTTTLQQHLVDGRDMIIIRMPKDFPPFPQKLKFREPQREERIRLVTTNFQTKSMSSMVSDTSCTFPSGDGIFWKHWIQTKDGQCGSPLVSTRDGFIVGIHSASNFTNTNNYFTSVPKNFMELLTNQEAQQWVSGWRLNADSVLWGGHKVFMVKPEEPFQPVKEATQL [C111R] | 0.0596 | – | 0.0782 | 0.0735 | 0.101 | 0.0739 | – | 0.0628 | 0.063 | 0.0862 | 0.0892 | – | 0.0524 | – | – | – | – | – | –
6 | MGESLFKGPRDYNPISSSICHLTNESDGHTTSLYGIGFGPFIITNKHLFRRNNGTLVVQSLHGVFKVKDTTTLQQHLVDGRDMIIIRMPKDFPPFPQKLKFREPQREERIFLVTTNFQTKSMSSMVSDTSCTFPSGDGIFWKHWIQTKDGQCGSPLVSTRDGFIVGIHSASNFTNTNNYFTSVPKNFMELLTNQEAQQWVSGWRLNADSVLWGGHKVFMVKPEEPFQPVKEATQL [C111F] | 0.0483 | 0.0717 | 0.0653 | 0.0933 | 0.0516 | 0.0152 | 0.0171 | 0.084 | 0.0435 | 0 | 0.087 | 0.0936 | – | 0.0811 | – | 0.0502 | – | 0.0761 | 0.0753
7 | MGESLFKGPRDYNPISSSICHLTNESDGHTTSLYGIGFGPFIITNKHLFRRNNGTLVVQSLHGVFKVKDTTTLQQHLVDGRDMIIIRMPKDFPPFPQKLKFRFPQREERICLVTTNFQTKSMSSMVSDTSCTFPSGDGIFWKHWIQTKDGQCGSPLVSTRDGFIVGIHSASNFTNTNNYFTSVPKNFMELLTNQEAQQWVSGWRLNADSVLWGGHKVFMVKPEEPFQPVKEATQL [E103F] | 0.0715 | 0.0616 | 0.0695 | – | 0.0939 | – | – | 0.058 | – | – | – | 0.0737 | 0.0712 | – | – | 0.0728 | – | – | 0.0853
8 | MGESLFKGPRDYNPISSSICHLTNESDGHTTSLYGIGFGPFIITNKHLFRRNNGTLVVQSLHGVFKVKDTTTLQQHLVDGRDMIIIRMPKDFPPFPQKLKTREPQREERICLVTTNFQTKSMSSMVSDTSCTFPSGDGIFWKHWIQTKDGQCGSPLVSTRDGFIVGIHSASNFTNTNNYFTSVPKNFMELLTNQEAQQWVSGWRLNADSVLWGGHKVFMVKPEEPFQPVKEATQL [F101T] | 0.0533 | 0.0484 | 0.0607 | – | – | 0.074 | 0.051 | – | – | – | – | – | 0.0557 | 0.058 | 0.0782 | 0.0385 | – | – | 0.0512
9 | MGESLFKGPRDYNPISSSICHLTNESDGHTTSLYGIGFGPFIITNKHLFRRNNGTLVVQSLHGVFKVKDTTTLQQHLVDGRDMIIIRMPKDFPPFPQKLKFREPHREERICLVTTNFQTKSMSSMVSDTSCTFPSGDGIFWKHWIQTKDGQCGSPLVSTRDGFIVGIHSASNFTNTNNYFTSVPKNFMELLTNQEAQQWVSGWRLNADSVLWGGHKVFMVKPEEPFQPVKEATQL [Q105H] | 0.0706 | 0.0571 | 0.07 | 0.0826 | 0.0944 | 0.073 | 0.0582 | – | 0.0513 | – | 0.0662 | 0.079 | 0.068 | 0.0648 | – | 0.0919 | – | – | –
10 | MGESLFKGPRDYNPISSSICHLTNESDGHTTSLYGIGFGPFIITNKHLFRRNNGTLVVQSLHGVFKVKDTTTLQQHLVDGRDMIIIRMPKDFPPFPQKLKFREPQREHRICLVTTNFQTKSMSSMVSDTSCTFPSGDGIFWKHWIQTKDGQCGSPLVSTRDGFIVGIHSASNFTNTNNYFTSVPKNFMELLTNQEAQQWVSGWRLNADSVLWGGHKVFMVKPEEPFQPVKEATQL [E108H] | 0.0663 | 0.0535 | 0.0609 | 0.0609 | 0.0587 | 0.0701 | 0.0572 | 0.0655 | 0.0543 | 0.0584 | 0.0608 | – | 0.0631 | – | – | 0.0646 | – | 0.0659 | 0.0531
